Measurements as given in PubChem BioAssay AID488969 (Vanderbilt High Throughput Screening Facility, 2010).
In all, about 110,000 compounds were measured (“z-score”: median about -0.1, highest 2% from about 2 on). The list shows a part of the results.

Biological target: Metabotropic glutamate receptor 8 (Rattus norvegicus) (UniProt P70579)
Experiment: rat mGluR8 modulators via GIRK flux, primary screen, cell-based, thallium flux, HTS (AID 488969)
Settings: HEK293 rat mGluR8, GIRK (G protein-gated inwardly rectifying potassium channel) thallium flux, FluoZin2; at 10 µM; stronger effect = higher value; submaximal glutamate (EC20) added with thallium

UniProt P70579, sequence (P70579 whole entry, looked up): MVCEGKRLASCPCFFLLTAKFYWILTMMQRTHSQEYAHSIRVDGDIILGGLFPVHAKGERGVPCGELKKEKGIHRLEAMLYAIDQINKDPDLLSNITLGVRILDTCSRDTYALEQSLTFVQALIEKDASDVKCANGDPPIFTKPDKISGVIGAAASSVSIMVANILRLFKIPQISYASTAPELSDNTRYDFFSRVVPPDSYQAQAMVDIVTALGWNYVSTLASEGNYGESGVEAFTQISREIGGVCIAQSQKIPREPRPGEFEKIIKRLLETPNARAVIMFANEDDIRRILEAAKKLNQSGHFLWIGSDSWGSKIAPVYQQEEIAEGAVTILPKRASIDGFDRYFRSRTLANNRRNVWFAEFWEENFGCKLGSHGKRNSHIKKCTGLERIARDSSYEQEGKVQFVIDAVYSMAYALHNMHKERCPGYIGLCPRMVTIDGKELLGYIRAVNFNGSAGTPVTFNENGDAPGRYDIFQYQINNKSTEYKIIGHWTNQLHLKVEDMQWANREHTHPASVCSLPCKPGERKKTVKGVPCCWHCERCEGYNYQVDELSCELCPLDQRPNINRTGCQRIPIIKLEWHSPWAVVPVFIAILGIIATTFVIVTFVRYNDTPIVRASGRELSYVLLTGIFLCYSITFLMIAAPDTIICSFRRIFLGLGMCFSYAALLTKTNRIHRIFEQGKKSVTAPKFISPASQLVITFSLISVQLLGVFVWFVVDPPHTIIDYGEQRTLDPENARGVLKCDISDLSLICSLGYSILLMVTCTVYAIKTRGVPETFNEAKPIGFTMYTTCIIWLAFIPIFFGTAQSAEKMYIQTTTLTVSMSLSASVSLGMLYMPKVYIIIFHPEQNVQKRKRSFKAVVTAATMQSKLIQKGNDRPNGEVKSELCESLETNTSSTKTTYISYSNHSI

Row | SMILES | z-score
1 | COc1ccccc1/C=N/NC(=O)c1ccc(Cn2nc([N+](=O)[O-])cc2C)cc1 | -0.00192
2 | CN(C)/C=C/C=C1C(=O)CCCC1=O | -0.105
3 | CCOC(=O)CSc1nnc(CNC(=O)c2ccc(OC)cc2)n1C1CCCCC1 | -0.603
4 | O=C(NC1CCCCC1)C(c1ccc(F)cc1)N(C(=O)Cc1ccsc1)c1ccc(F)cc1 (centres undefined) | -0.112
5 | O=C(Nc1ccon1)c1csc2c1CCCC2 | -0.0861
6 | O=C(NCCCO)C12CC3CC(CC(C3)C1)C2 | 0.182
7 | O=S(=O)(c1ccc(Cl)c(NC(=S)N/N=C/c2c(F)cccc2F)c1)N1CCOCC1 | -0.203
8 | CCn1nc(C)c(NC(=O)/C=C/c2cnn(C)c2)c1C | 0.244
9 | Cc1cc(C)n(C(=O)CNc2ccc(C)c(C)c2)n1 | 0.00249
10 | CCOC(=O)N1CCN(C(=O)c2cccc(-n3c(=S)[nH]c4cc(Cl)ccc4c3=O)c2)CC1 | 1.32
11 | O=C(Oc1ccc(Br)cc1)c1cncc(Br)c1 | 0.054
12 | COc1ccc(Cc2nc3ccccc3n2CC(=O)N/N=C/c2ccccc2)cc1OC | 0.201
13 | COc1ccccc1OCc1ccc(C(=O)NCC2CCCO2)o1 (centres undefined) | -0.025
14 | COc1ccc2nc(N3CCC(C)CC3)c(C#N)cc2c1 | -0.192
15 | COc1ccc(-c2cc(C(=O)OCC(=O)c3cccc([N+](=O)[O-])c3)c3cc(C)ccc3n2)cc1 | -0.0316
16 | COc1ccc2[nH]c(=O)c(CN(CCc3ccccc3)C(C)=O)cc2c1 | 0.442
17 | CCOC(=O)c1sc2nc(C)n(CC(=O)NCC3CCCO3)c(=O)c2c1C (centres undefined) | 0.0771
18 | NC(=O)c1ccc(Br)c(S(=O)(=O)N2CCCCC2)c1 | 1.64
19 | O=S(=O)(c1ccccc1C(F)(F)F)N1CCOCC1 | -0.598
20 | CCS(=O)(=O)N1CCc2cc(OC)c(OC)cc2C1 | -0.177
21 | Cc1nc(Sc2nnnn2-c2ccccc2)c(C#N)c(C)c1C | -0.282
22 | Cc1ccc(NC(=O)c2ccc(N3CCOCC3)c([N+](=O)[O-])c2)cc1S(=O)(=O)N1CCOCC1 | -0.139
23 | O=S(=O)(NCCc1csc(-c2cccnc2)n1)c1cccs1 | -0.387

Row | SMILES | z-score
24 | CCC(=O)Nc1cc(C(=O)NCC2CCCN2CC)c(OC)cc1N(C)C (centres undefined) | -0.0885
25 | COC(=O)c1cccc(S(=O)(=O)N(Cc2ccco2)Cc2cc3cc(OC)c(OC)cc3[nH]c2=O)c1 | -0.296
26 | c1ccc(-c2nnc(CSc3nncs3)o2)cc1 | 0.334
27 | Nc1nc(SCc2ccc(Cl)cc2Cl)ns1 | 0.11
28 | COc1ccc(S(=O)(=O)Nc2cc(C)nn2-c2ccccc2)cc1 | 0.0566
29 | CCN(CC)c1ccc(/C=N/NC(=O)Cc2nnc(NC(=O)Nc3ccccc3)s2)cc1 | -0.282
30 | COc1ccc(Br)cc1CNc1ccc(O)cc1 | -0.14
31 | CCOc1ccc(C(NC(=O)c2ccco2)c2ccc(OC)c(OC)c2)cc1 (centres undefined) | -0.0569
32 | COc1cccc(-c2[nH]nc3c2C(c2ccoc2)C(C#N)=C(N)O3)c1 (centres undefined) | -0.294
33 | Cc1ccc(N=C2NC(=O)c3cc([N+](=O)[O-])ccc32)cc1 | -0.049
34 | Clc1ccc(-c2nnc3n2CCCC3)cc1 | 0.0266
35 | CC(C)C(=O)Nc1nnc(-c2ccccc2)o1 | 0.162
36 | Fc1ccccc1CSc1nnc(Cn2cnc3ccccc32)n1-c1ccccc1 | -0.176
37 | O=C(CSc1nnc(-c2ccccc2)n1Cc1ccco1)Nc1ccc(S(=O)(=O)N2CCCC2)cc1 | -1.61
38 | N#Cc1c(-c2ccccc2)[nH]c(=S)[nH]c1=O | -0.744
39 | COc1cccc(-c2csc(N3CCN(C(=S)Nc4ccc(Cl)cc4)CC3)n2)c1 | 0.0281
40 | O=C(NCCSc1ccccc1)c1ccccc1 | 0.0148
41 | Cn1c(=O)c(NCCc2ccccc2)c2c3c(cccc31)C(=O)c1ccccc1-2 | 1.94
42 | NC(=O)COC(=O)CNC(=O)c1ccc(Cl)cc1 | -0.0355
43 | CC(=O)Nc1ccc(OCC(=O)c2ccc(C)cc2C)cc1 | 0.0995
44 | CC(C)(C)N(Cc1ccccc1)C(=O)c1ccc2c(c1)OCCO2 | -0.815
45 | CCC(C)N1C(=O)CCC1C(=O)O (centres undefined) | -0.00449
46 | CC(C)C1C(=O)NC(=S)N1S(=O)(=O)c1ccc(C(C)(C)C)cc1 (centres undefined) | 0.126

Row | SMILES | z-score
47 | CSc1nnc(Cc2sc(-c3ccccc3)nc2-c2ccccc2)o1 | -0.0737
48 | COc1cc(/C=C/C(=O)O)cc(S(=O)(=O)Nc2ccccc2Cl)c1OC | -0.238
49 | Cc1[nH]c(=S)[nH]c(=O)c1CCOc1ccccc1 | 0.0445
50 | CC1(C)CC(=O)CC(C2(O)C(=O)N(Cc3ccccc3)c3ccccc32)O1 (centres undefined) | 0.107
51 | Cc1ccc(NCc2nnc(SCC(N)=O)n2CCc2ccccc2)cc1 | -1.03
52 | OCCNc1ncnc2c1ncn2Cc1ccccc1 | -0.662
53 | CCc1ccc(S(=O)(=O)NCCc2csc(-c3cccnc3)n2)s1 | -0.459
54 | Cc1ccc(SCC(=O)NCCCN2CCOCC2)cc1 | -0.175
55 | CCC(=O)Nc1c(-c2ccc(OC)cc2)c(=O)c2ccccc2n1C | 2.76
56 | O=C1c2cc3ccccc3c(-c3ccccc3)c2C(=O)N1c1ccccn1 | -0.0793
57 | Cc1ccnc(NS(=O)(=O)Cc2ccccc2)c1 | 0.201
58 | Cc1ccccc1OCC(=O)OC1CCN(C)CC1 | 0.459
59 | CCN1CCN(CCNC(=O)C2CCN(Cc3nc(-c4ccc(Cl)cc4)oc3C)CC2)CC1 | 0.0923
60 | COc1ccccc1-n1c(SCC(N)=O)nc2c(c1=O)SCC2 | -0.2
61 | O=S(=O)(Nc1ccn(-c2ccccc2)n1)c1ccc(Br)cc1 | -0.000107
62 | c1ccc(C2c3c(ccc4ccccc34)Oc3ncn4nc(-c5ccco5)nc4c32)cc1 (centres undefined) | -0.0796
63 | Cc1nnc(N2CCOCC2)c2nn(-c3cccc(Cl)c3)c(C)c12 | -0.883
64 | Cc1ccccc1N/C=C/C(=C(C#N)C#N)N(C)C | -0.141
65 | COc1ccccc1OCc1nc(C#N)c(N2CC(C)CC(C)C2)o1 (centres undefined) | -0.0217
66 | Clc1cccc(N/N=C/c2ccc(N3CCOCC3)cc2)c1 | -0.176
67 | COc1ccc(-n2nnnc2SCC(=O)Nc2ccc3c(c2)OCCO3)cc1OC | 0.861
68 | O=C(Nc1ccc(Cl)cc1)N1CCSc2ccccc21 | -0.00414
69 | CCOc1ccccc1NC(=O)CCC(=O)O | -0.336

Row | SMILES | z-score
70 | COC(=O)c1ccc(N2C(=O)CC(N(C)Cc3ccccc3)C2=O)cc1 (centres undefined) | 0.205
71 | CC(C)CCNC(=O)NC(=O)COC(=O)/C=C/c1cnc2ccccc2n1 | -0.278
72 | COC(=O)c1cc(C#N)c(NCc2ccccc2)nc1C | -0.361
73 | O=C(Nc1nccs1)C1CCCN1S(=O)(=O)c1cccc2cccnc12 (centres undefined) | 0.0342
74 | Cc1nnc2c(Oc3ccccc3)nc3ccccc3n12 | 0.725
75 | COc1ccc(-n2ncc3c(N4CCc5ccccc54)ncnc32)cc1 | -0.0249
76 | CCOC(=O)N1CCN(C(=O)c2cccc(OC)c2O)CC1 | -0.108
77 | Cc1ccccc1CSc1n[nH]c(NS(=O)(=O)c2ccccc2)n1 | -0.232
78 | COc1ccc(CCN(C)C(=O)CN2C(=O)c3ccccc3S2(=O)=O)cc1OC | -0.354
79 | CCOC(=O)c1sc(NC(=O)c2c(OC)cccc2OC)nc1C | -0.0301
80 | CCCC(=O)c1cc(F)c(N2CCN(S(=O)(=O)c3ccccc3)CC2)cc1C | 1.1
81 | CCCc1cc(C(=O)Cc2nc3ccccc3s2)c(O)cc1O | -0.268
82 | Cc1ccc2cccc(N=Cc3c(C)[nH]n(-c4ccccc4)c3=O)c2n1 | 0.282
83 | N/C(Cc1ccc(Cl)cc1)=N\OC(=O)Cc1ccc([N+](=O)[O-])cc1 | -0.0327
84 | CCCCNC(=O)c1ccccc1Cl | -0.135
85 | CCC(C)[C@H](Nc1nc(-c2ccccc2)nc2c1oc1ccccc12)C(=O)O (some centres undefined) | -0.972
86 | CC1CCN(Cc2ccc(NC(=O)CC3Oc4ccccc4NC3=O)cc2)CC1 (centres undefined) | -0.528
87 | COC(=O)c1sc(=S)n(-c2ccc(Cl)cc2)c1C | -1.6
88 | CCOC(=O)c1cnn(CCOC(=O)c2cccs2)c1NC(=O)c1cccs1 | 0.303
89 | COc1ccc(OCC(=O)OCC(=O)NCc2ccco2)cc1 | 0.117
90 | CC(NC(=O)CN1CCC(C(N)=O)CC1)c1ccccc1 (centres undefined) | -0.0375
91 | COc1ccc(NC(C)=O)cc1NC(=O)CSc1nc2ncccc2[nH]1 | 0.109
92 | Cc1cc(NC(=O)c2ccco2)ncc1NC(=O)CCc1ccccc1 | -0.188

Row | SMILES | z-score
93 | O=C(c1cc2cc(Cl)ccc2oc1=O)N1CCCC1 | 0.142
94 | CCOC(=O)CSc1nccc(N(C)C)c1C#N | 0.144
95 | COc1ccccc1NC(=S)NCc1cccs1 | -0.127
96 | O=C(OCC(=O)N1CCN(c2ccccc2)CC1)c1cccc(Cl)c1 | 0.0206
97 | Cc1noc2ncnc(Oc3ccc(F)cc3)c12 | 0.0343
98 | CCCCn1c(-c2ccccc2)cnc1SCC(=O)NCCc1ccc(OC)c(OC)c1 | -0.549
99 | CC12CCC(C(=O)N3CCN(C(c4ccccc4)c4ccccc4)CC3)(OC1=O)C2(C)C (centres undefined) | -0.194
100 | c1ccc(Cc2nnc3sc(-c4ccccn4)nn23)cc1 | -0.936
101 | CC(C)c1ccccc1NC(=S)NC(C)c1ccccc1 (centres undefined) | 0.112
102 | COc1cccc(N(C(=O)Cn2nnc(-c3cccs3)n2)C(C(=O)NC(C)C)c2ccc(C)o2)c1 (centres undefined) | 1.38
103 | CCOC(=O)C1=C(C)Nc2sc(C(=O)c3ccc(OC)cc3)c(N)c2C1c1ccc(C(=O)OC)cc1 (centres undefined) | -0.146
104 | CC(=O)c1ccc(N(C(=O)Cn2nnc(-c3ccccc3)n2)C(C(=O)NC2CCCCC2)c2ccccn2)cc1 (centres undefined) | -0.135
105 | Cc1csc(NC(=O)/C=C/c2ccc(C)o2)n1 | 0.0991
106 | O=C(O)c1cc(NCc2ccccc2)ccc1N1CCOCC1 | -0.122
107 | Nc1c(C(=O)c2ccccc2)sc2c1c(=O)[nH]c(=O)n2-c1ccccc1 | -0.584
108 | CSc1ccccc1NC(=O)CN(C1CCCCC1)S(C)(=O)=O | 0.0928
109 | O=C1CC(c2cccc(Cl)c2)c2cc3c(cc2N1)CCC3 (centres undefined) | -0.438
110 | CCOC(=O)c1cc(OC(=O)c2ccccc2)n(-c2ccccc2)n1 | -1.99
111 | COc1ccc2nc(C)cc(SCC(=O)Nc3c(C)cccc3C)c2c1 | 0.37
112 | COc1ccc(/C=N/NC(=O)CNC(=O)c2cccs2)cc1 | -0.144
113 | O=C1/C(=C/c2ccc(N3CCOCC3)o2)SC(=Nc2ccccc2)N1CCc1c[nH]c2ccccc12 | -2
114 | C=CCc1ccc(OCCCOc2ccc(C)cc2OC)c(OC)c1 | 1.11
